About 200 (0.44%) of roughly 45,000 compounds were called active. Not shown: some 7% with an inconclusive outcome. Calls follow the shape of the dose curve; as a rule, active = well fitted activation curve with a large enough effect; inconclusive = small, poorly fitted or top-dose-only effect; inactive = no such curve, though single readings can be large or run the other way. Some of the results follow.
Assay: qHTS of TDP-43 Inhibitors: NCGC Sytravon Library Screen; also: 0% is about no effect; nearly all actives have a fitted effect of over 55% in size
Conditions: yeast TDP-43 toxicity rescue, BacTiter-Glo growth, 24 h; series mostly up to 46.1 µM; growth rescue (activation): at the top concentration
Summary of the method: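 TDP-43-expressing yeast, pregrown in raffinose, seeded at OD600 0.02 in galactose medium with compound for 24 hr at 30 deg C. Growth read by BacTiter-Glo luminescence, so rescue of toxicity appears as activation.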

| SMILES | growth rescue (activation) |
| --- | --- |
| CC1=NNC(=O)C1CCC(=O)N/N=C/c1ccco1 (stereo not given) | inactive: -6.85% |
| CCOc1ccc(C2/C(=C(\O)c3cccc(OC)c3)C(=O)C(=O)N2c2cc(C)on2)cc1OC (stereo not given) | inactive: 15.6% |
| COCCn1cnc2c1c(=O)n(CC(=O)c1ccc3c(c1)OCCO3)c(=O)n2Cc1ccccc1 | inactive: 7.38% |
| CN(C)C(=S)NC(=O)C(c1ccccc1)c1ccccc1 | inactive: 1.79% |
| O=C1N/C(=C/c2cccs2)C(=O)N1Cc1ccccc1F | inactive: -6.82% |
| O=C(CSc1ccccc1)Nc1nccs1 | inactive: 9.49% |
| COc1ccc(NC(=O)c2cc(-c3ccc(F)cc3OC(C)C)n[nH]2)cn1 | inactive: 23.1% |
| Cc1ccc(C(=O)OC(C(=O)Nc2ccc(Cl)cc2C(F)(F)F)c2ccccc2)cc1 (stereo not given) | inactive: 1.18% |
| O=C(CSc1nnc(COc2ccc(F)cc2)o1)N1CCCCC1 | inactive: 29.9% |
| Cn1c(N)c(C(=O)COC(=O)CNC(=O)c2ccc(Cl)cc2Cl)c(=O)n(C)c1=O | inactive: 6.49% |
| Cc1ccc(S(=O)(=O)CC(c2ccccc2)N2CCCCC2)cc1 (stereo not given) | inactive: 0.149% |
| O=C(CCCNS(=O)(=O)c1ccc(F)cc1)Nc1ccc(F)cc1 | inactive: 1.72% |
| Cc1[nH]c2ccc(F)cc2c1CCN1C(=O)OC(C)(C)C1(C)O (stereo not given) | inactive: 30% |
| CC1(C(=O)NS(=O)(=O)c2cccs2)CCN1C(=O)CC1CC1 (stereo not given) | inactive: 3.25% |
| Cc1cnc(CNC(=O)c2csc([C@@H]3C[C@H](O)[C@@H](CO)O3)n2)cn1 | inactive: 11.2% |
| CCCN1CCN(C(=O)c2cc(COc3ccc(F)cc3F)on2)CC1 | inactive: 21.2% |
| CCn1nnc(NC(=O)c2ccc(-c3ccccc3[N+](=O)[O-])o2)n1 | inactive: 16.2% |
| COCCNC(=S)N/N=C/c1ccc(OCc2ccc(C(=O)OC)cc2)cc1 | inactive: 19.3% |
| COc1cccc(CNC(=S)Nc2cc(C)cc(C)c2)c1 | inactive: 8.54% |
| C=CCOc1c(Cl)cc(CNn2cn[nH]c2=S)cc1OC | inactive: 11.6% |
| Cc1ccc(NC2CCCN(C(=O)CCN3CCCCO3)C2)cc1C (stereo not given) | inactive: 6.54% |
| O=C(N[C@@H](Cc1ccccc1)C(=O)O)c1cccs1 | inactive: 11% |
| CCOC(=O)c1c(-c2ccccc2)oc2ccc(OCc3ccc(C)cc3)cc12 | inactive: -4.89% |
| Cc1ccc(NC(=O)N[C@H](C(=O)O)C(C)C)c(C)c1 | inactive: 2.07% |
| CCc1ccccc1N1CC(C(=O)Nc2nccs2)CC1=O (stereo not given) | inactive: 4.23% |
| COc1ccc(CCNC(=O)Cc2cccs2)cc1 | inactive: 3.8% |
| CC(OC(=O)c1ccc(O)cc1)C(=O)Nc1ccc(Oc2ccccc2)cc1 (stereo not given) | inactive: -14.8% |
| CCN1CCN(C(=O)c2cc(S(=O)(=O)N3CCCCC3)ccc2Cl)CC1 | inactive: 11.5% |
| COc1ccccc1N1CCN(C(=O)CSc2nc(C)cc(=O)[nH]2)CC1 | inactive: 11.6% |
| CC(C)CN(C(=O)CN(C)CC(=O)Nc1ccccc1C#N)c1c(N)n(CC(C)C)c(=O)[nH]c1=O | inactive: -1.07% |

Reference: PubChem BioAssay AID1347073 (National Center for Advancing Translational Sciences (NCATS), 2019)
